Results on 26 compounds are retold here after PMC4336329 (PLoS ONE, 2015).

Out of some 310,000 compounds screened, about 2,200 (0.71%) showed an effect of 50% or more. The effect is printed as a negative number. This is one part of the list.

human ether-à-go-go-related gene (hERG) potassium channel, sequence (Q12809 whole entry, looked up): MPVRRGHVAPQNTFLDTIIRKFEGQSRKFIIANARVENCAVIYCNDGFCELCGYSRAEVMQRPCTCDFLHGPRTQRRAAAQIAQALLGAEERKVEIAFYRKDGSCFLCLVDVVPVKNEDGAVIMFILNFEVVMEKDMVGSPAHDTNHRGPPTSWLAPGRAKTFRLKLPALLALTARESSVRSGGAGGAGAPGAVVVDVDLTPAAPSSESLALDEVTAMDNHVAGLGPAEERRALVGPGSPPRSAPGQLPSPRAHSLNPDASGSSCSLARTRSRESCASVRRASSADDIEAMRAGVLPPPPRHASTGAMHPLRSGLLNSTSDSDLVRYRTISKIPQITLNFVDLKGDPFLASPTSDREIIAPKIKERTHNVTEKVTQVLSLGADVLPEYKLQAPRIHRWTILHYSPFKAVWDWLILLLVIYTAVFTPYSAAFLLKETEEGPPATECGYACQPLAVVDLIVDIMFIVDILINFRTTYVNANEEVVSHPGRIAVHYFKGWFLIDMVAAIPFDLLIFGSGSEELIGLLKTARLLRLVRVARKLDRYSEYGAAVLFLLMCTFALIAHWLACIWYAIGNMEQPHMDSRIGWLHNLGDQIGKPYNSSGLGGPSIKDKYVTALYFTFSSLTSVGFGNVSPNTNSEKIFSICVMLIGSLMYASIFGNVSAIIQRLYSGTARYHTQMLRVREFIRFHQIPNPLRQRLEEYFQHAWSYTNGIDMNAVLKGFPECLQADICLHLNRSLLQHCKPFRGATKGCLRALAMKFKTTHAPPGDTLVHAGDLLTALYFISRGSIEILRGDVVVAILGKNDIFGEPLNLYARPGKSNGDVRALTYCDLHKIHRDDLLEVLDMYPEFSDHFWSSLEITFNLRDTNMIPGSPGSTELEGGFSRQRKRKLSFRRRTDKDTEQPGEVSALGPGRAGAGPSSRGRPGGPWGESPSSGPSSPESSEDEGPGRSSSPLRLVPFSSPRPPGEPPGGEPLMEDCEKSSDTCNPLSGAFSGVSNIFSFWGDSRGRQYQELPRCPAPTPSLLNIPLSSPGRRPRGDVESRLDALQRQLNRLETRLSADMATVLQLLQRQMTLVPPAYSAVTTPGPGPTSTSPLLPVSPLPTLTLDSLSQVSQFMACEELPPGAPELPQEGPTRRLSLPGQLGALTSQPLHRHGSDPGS

This assay addresses human ether-à-go-go-related gene (hERG) potassium channel (human, UniProt Q12809). The assay can be described thus: primary screen, population patch clamp on CHO cells stably expressing hERG.
In the case of `O=C(c1nnc(Cc2ccc(Cl)cc2)o1)N1CCOCC1`, the “hERG current change (%, negative = inhibition) at 1uM” value is 10.8%.
In the case of `Cc1nc(-c2ccc(C(F)(F)F)cc2)sc1C(=O)NN`, the “hERG current change (%, negative = inhibition) at 1uM” value was found to be 13.3%.
The same measure for `CC(C)(C)OC(=O)N1CCC(CC2CC(c3ccncc3)=NO2)(C(=O)O)CC1` (centres unmarked): 11.5%; for `CN(Cc1nc2ccccc2c(=O)[nH]1)C(=O)c1cccc(S(=O)(=O)N2CCCC2)c1`: 2.66%.
Take `Nc1ccc(-c2nc3c(Cl)cc(N)cc3[nH]2)cc1`: the “hERG current change (%, negative = inhibition) at 1uM” value was 15.6%.
For `COc1cccc(OC)c1NC(=O)Cn1nc(-c2ccc3c(c2)OCCO3)ccc1=O` the value was 6.74%; for `COc1ccccc1-c1c(C)oc2c(CN3CCOCC3)c(O)ccc2c1=O`, -1.31%; for `CC(=O)NC(c1ccc(F)cc1)c1cccnc1` (centres unmarked), 3.81%.
The same measure for `CCCCN1C(=O)C(=O)N(CC(=O)N2CCc3ccccc32)C1=O`: 5.83%; for `CCNC(=O)COC(=O)/C=C/c1cccs1`: 14.5%; for `CCOC(=O)c1cnc(SC2CC(=O)N(c3ccc(C)cc3)C2=O)nc1N` (centres unmarked): 5.72%.
Take `O=C(N/N=C\CCc1ccccc1)c1ccco1`: the “hERG current change (%, negative = inhibition) at 1uM” value came to 9.12%.
The same measure for `Cc1cc2nc(C)n3c4ccccc4nc3n2n1`: 4.71%; for `CN(C)/C=C1\C(=O)N(c2ccc(Cl)cc2)CS1(=O)=O`: 3.01%; for `COc1ccc(/C(N)=N/OC(=O)c2cccc([N+](=O)[O-])c2C)cc1OC`: 9.53%.
For `CCCCCOc1ccc(C(=O)OC(C)C(=O)NCc2ccco2)cc1` (centres unmarked), the “hERG current change (%, negative = inhibition) at 1uM” value is -5.69%.
The same measure for `CC(C)c1ccc(Nc2nnc(SCC(=O)c3nnc(-c4ccccc4)o3)s2)cc1`: 22.3%; for `CCS(=O)(=O)c1ccc2c(c1)N(S(=O)(=O)c1ccc(C)cc1)CC(C(=O)O)O2` (centres unmarked): 15.8%; for `CC(=O)c1c(C)n(-c2ccc(C)cc2C)c2ccc(O)cc12`: 12.4%.
The same measure for `CSc1ccc(CN(C)C(C)C(=O)NCc2ccccc2)cc1` (centres unmarked): 23%; for `CC(C)CC(=O)Nc1sc2c(c1C(=O)O)CCCCC2`: 15.5%; for `CSc1cccc(NC(=O)CN(C)S(=O)(=O)c2ccc(F)cc2)c1`: -10.6%.
The same measure for `COc1ccc(CC(=O)Nc2nc3n(n2)C(c2ccccc2)CC(=O)N3)cc1OC` (centres unmarked): 9.07%.
Turning to `O=C1NC2(CCCCCC2)C(=O)N1Cc1c(F)cccc1Cl`, the “hERG current change (%, negative = inhibition) at 1uM” value was determined as 7.36%.
For `CCCCN(C)Cc1c(C)[nH]c2c(Cl)cccc2c1=O` the value was -11.3%.
The same measure for `O=C(Nc1nnc(SCc2cccc3ccccc23)s1)C1COc2ccccc2O1` (centres unmarked): 6.72%.
